Values joined by “and” are separate entries in the source; they are usually repeats but may differ in a detail not shown here. Equal entries are not always repeated. Screen size: about 48,000 compounds; about 1,200 (2.5%) were called active. About 2% were inconclusive and are not listed.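 Rule for the calls: active = activation of at least 60% and not above a set upper limit (about 1 call in 100 departs from these limits); inconclusive = activation of 40% to 60%, or above that upper limit; inactive = activation under 40%.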 The list shows a part of the results.
Each compound was assayed against Probable G-protein coupled receptor 32 (Homo sapiens) (UniProt O75388) (assay: qHTS for Agonists of Human Resolvin D1 Receptor DRV1). Conditions: CHO-K1 GPR32 beta-arrestin PathHunter luminescence, 90 min; at 76.9 µM; active compounds read high; zero percent set by DMSO-only wells.
UniProt O75388, sequence (O75388 whole entry, looked up): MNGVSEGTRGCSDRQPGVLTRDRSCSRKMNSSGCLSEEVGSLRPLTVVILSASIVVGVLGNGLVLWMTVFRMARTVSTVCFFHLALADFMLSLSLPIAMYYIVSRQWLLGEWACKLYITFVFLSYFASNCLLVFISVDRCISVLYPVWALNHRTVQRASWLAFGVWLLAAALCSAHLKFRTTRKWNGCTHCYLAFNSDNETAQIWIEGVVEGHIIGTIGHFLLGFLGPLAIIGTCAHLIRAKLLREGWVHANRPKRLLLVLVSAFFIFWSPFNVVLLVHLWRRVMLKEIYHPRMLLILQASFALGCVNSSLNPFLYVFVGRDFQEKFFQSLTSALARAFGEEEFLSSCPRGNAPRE
Procedure, shortened: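 PathHunter beta-arrestin recruitment in CHO-K1 cells stably expressing ProLink-tagged GPR32. Cells were exposed to compound for 90 min at 37 C, then chemiluminescence was read after 1 h detection at ambient temperature; DMSO served as basal control.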
Note: 0% is about no effect.

activation, inactive:
Cc1ccc(C)c(NC(=O)CCCN2C(=O)C(c3ccccc3)Oc3cccnc32)c1 (stereo not given) 9.11%
O=C(CNC(=O)c1ccc(Cl)cc1)OCc1cc(=O)n2nc(C3CCCCC3)sc2n1 0.499%
Nc1c(C(=O)Nc2ccc(Br)cc2)sc2nc(-c3ccncc3)ccc12 -20.5%
CCOC(=O)c1cccc(NC(=O)N2CCC(CN3CCCCCC3)CC2)c1 -15.3%
CC(=O)Nc1cccc(NC(=O)CSc2cn(CC(=O)N3CCCCCC3)c3ccccc23)c1 -7.97%
CNC(=O)C1CCC(Cn2c(=O)c3sccc3n(CC(=O)Nc3cc(F)ccc3F)c2=O)CC1 (stereo not given) -12.1%
O=C(c1cn(CCOc2ccc(Cl)cc2)c2ccccc12)C1CCCCC1 10.8%
O=[N+]([O-])c1cc(-c2nc(-c3ccncc3)no2)ccc1NCc1ccccc1 -14.5%
COc1cn(CC(=O)Nc2cc(C)ccc2C)c(CN2CCCCC2)cc1=O -4.11%
O=C(Nc1ccc2oc(-c3cccc(Cl)c3Cl)nc2c1)c1cccc(Br)c1 9.56%
CCN(CC)S(=O)(=O)c1ccc(C(=O)NCCSc2c(-c3ccc(OC)cc3)[nH]c3ccccc23)cc1 -24.8%
COc1ccccc1NC(=O)C1=C(C)Nc2nc(SCc3ccccc3Cl)nn2C1c1ccncc1 (stereo not given) -2.16%
CC(=O)c1c(C)oc2ccc(N(C(=O)c3ccncc3)S(=O)(=O)c3ccc(C)cc3C)cc12 8.26%
COc1ccc(-c2ccc(=O)n(CC(=O)NCCc3ccccc3)n2)cc1 -2.34%
CCOc1ccc(C(=O)c2cn(CC(=O)Nc3cc(OC)ccc3OC)c3cc(OC)c(OC)cc3c2=O)cc1 18.5%
COc1ccc(NCc2nnc3n2CCCCC3)c(OC)c1 10.8%
O=C(CN1C(=O)C2(SCC(=O)N2c2ccc(F)cc2)c2ccccc21)NCCc1ccccc1 (stereo not given) -7.76%
CCc1ccc(OCCSc2nc(-c3cccc(C)c3)nc3cc(=O)[nH]n23)cc1 -33.6%
COc1ccc(NC(=O)CCSc2nc(-c3ccco3)cc(C(F)(F)F)n2)cc1OC 25.4%
O=C(O)c1cccnc1 -8.23%
Cc1cc(C)cc(Nc2cc(C(=O)NCc3ccccc3)c3ccccc3n2)c1 -4.3%
Cc1cc(C)c(NC(=O)C(C)n2nnc3sc(-c4ccccc4)cc3c2=O)c(C)c1 (stereo not given) -3.86%
CCOc1cc(CNCCSc2nnnn2-c2ccccc2)ccc1OC -0.577%
O=C(Nc1ccccc1C(F)(F)F)c1cc2ccccn2n1 -8.39%
N[C@@H](COP(=O)(O)O)C(=O)O 1.46% and 3.62%
CCCNC(=O)CN1CCN(c2ncc(NC(=O)c3ccc(Cl)cc3)cc2C(=O)O)CC1 -1.97%
CCOC(=O)c1ccc(-c2ccc(/C=C(\C#N)C(=O)Nc3ccc(C)cc3OC)o2)cc1 -2.37%
COCCNC(=O)Cn1ncc2c(C)n(Cc3ccc(C)cc3)c(C)c2c1=O -7.81%
CCCOc1ccccc1C1Oc2nc(SC)nnc2-c2ccccc2N1C(C)=O (stereo not given) -2.14%
CCCCN1C(=O)C(O)(c2c(C)[nH]c3ccccc23)c2ccccc21 (stereo not given) 34.9%
Cc1cccc(-n2ncc3c(N4CCCCCC4)ncnc32)c1 -6.45%
Cc1ccc(CN(Cc2ccco2)C(=O)c2oc3ccc(C)cc3c2C)cc1 4.24%
CCOc1ccc(C(=O)c2cn(Cc3ccc(F)cc3)c3ccc(F)cc3c2=O)cc1 -14.2%
Cc1ccc(C)c(CNC(=O)c2cnc3sc(N4CCCC4)nn3c2=O)c1 -0.859%
CSc1ccc(C2c3c(oc4ccccc4c3=O)C(=O)N2CCCN2CCOCC2)cc1 (stereo not given) -7.57%
CC(C)(C)C(=O)OC1=CN(Cc2ccccc2)S(=O)(=O)c2ccccc21 -14.6%
CCc1ccc(NC(=O)CSc2nc3ncccc3[nH]2)cc1 11.7%
O=S(=O)(c1ccccc1)c1nc(-c2ccc(F)cc2)oc1N1CCCCCC1 0.494%
Cc1cccc(N(C)C(=S)Oc2ccc3ccccc3c2)c1 -13.1%
CCOc1ccc(/C=C/C(=O)Nc2sc3c(c2C(=O)OC)CCC3)cc1 11.8%
COc1cccc(NC(=O)c2c(C(=O)Nc3ccccc3)sc3nc(C)cc(=O)n23)c1 -26%
COc1cc2c(=O)n(CCC(=O)NCC3CCCO3)c(=O)n(CC(=O)Nc3ccc(F)cc3)c2cc1OC (stereo not given) -5.09%
CCc1ccc(-n2c(CCC(=O)O)ccc2-c2ccc(F)cc2)cc1 -0.879%
COc1ccc(S(=O)(=O)N(CC(=O)Nc2cccnc2)c2ccc(C)cc2)cc1OC -6.3%
Cc1ccc(O)c(NC(=O)CCS(=O)(=O)c2nc(-c3ccc4c(c3)OCO4)cc(C(F)(F)F)n2)c1 -25.7%
CCc1ccc(CNC(=O)CCn2c(=O)c3cccn3c3ccc(F)cc32)cc1 -20.6%
Cc1ccc(-n2nnc(-c3nsc(NC(=O)c4ccc(C)c(C)c4)n3)c2C)cc1 23.6%
O=c1[nH]c(=O)n([C@H]2C[C@H](O)[C@@H](CO)O2)cc1I -0.0054%
O=C(Nc1ccc(F)c(F)c1)C1CCCN1S(=O)(=O)c1cccc2nsnc12 (stereo not given) -6.68%
CCOc1ccccc1NC(=O)COc1ccc(S(=O)(=O)NC2CCCCC2)cc1 4.64%
CCOc1ccccc1CNC(=O)c1cc(-c2ccc(C)c(C)c2)nc2ccccc12 -14.3%
CCCS(=O)(=O)N1CCC(n2c(C(F)(F)F)nc3cccnc32)CC1 -3.95%
Cc1ccc(CNC(=O)C(=O)NCC(c2cccnc2)N2CCN(c3ccccc3F)CC2)cc1 (stereo not given) 1.07%
Cc1ccsc1CN(C(=O)c1oc2ccccc2c1C)C1CCS(=O)(=O)C1 (stereo not given) -19.8%
CCCCN(CCN(CCCC)C(=O)N1CCOCC1)C(=O)N1CCOCC1 4.34%
CC(C)Oc1ccc(CNC(=O)C2CCN(c3nc4ccccc4n(C)c3=O)CC2)cc1 12.5%
CCn1c(=O)c2sccc2n2c(CCC(=O)Nc3ccc(OC)c(Cl)c3)nnc12 20.4%
Cc1ccc(C(=O)Nc2nc(-c3ccccc3)ns2)cc1 41.1%
Cc1oc2ncn(C)c(=O)c2c1C(=O)NCCCN(Cc1ccccc1)C(C)C -11.3%
Cc1ccc(NC(=O)Cn2nnc(C(=O)NCCc3ccccc3)c2N)cc1C 1.27%
CS(=O)(=O)N1CCc2cc(C(=O)Nc3cccc(F)c3)ccc21 2.49%
COc1ccccc1CC(=O)Nc1ccc2nc(N3CCC(C)CC3)cc(C)c2c1 6.88%
Cc1ccc(C)c(Cn2c3ccccc3c3cnn(CC(=O)NC(C)c4ccccc4)c(=O)c32)c1 (stereo not given) -0.348%
CCOc1ccc(C2C(C(=O)Nc3ccc(Cl)cc3)=C(C)Nc3nc(C(F)(F)F)nn32)cc1 (stereo not given) -10.3%
COc1ccc(OC)c(S(=O)(=O)N2CC=C(c3c(C)n(CC(=O)N4CCCC4)c4ccccc34)CC2)c1 -6.77%
O=S(=O)(c1ccc(Cl)cc1)c1nnn2c1nc(N1CCCCC1)c1sccc12 -13.6%
Cc1ccccc1NC(=O)CN(c1ccc(Cl)cc1Cl)S(=O)(=O)c1ccccc1 -32.3%
Fc1ccccc1-n1ncc2c1ncn1nc(Cc3ccccc3)nc21 -8.13%
Cc1ccc2c(c1)-c1c(c(C(=O)N3CCN(c4cc(Cl)ccc4C)CC3)nn1C)CS2 -19.9%
CC(CNC(=O)CCS(=O)(=O)c1ccc2c(c1)oc(=O)n2C)c1ccccc1 (stereo not given) 7.6%
Cc1cccc(NC(=O)N2CCC(CN3CCOCC3)CC2)c1C -6.27%
COc1ccc(-c2nc3sc(CCNC(=O)c4ccccc4C)c(C)n3n2)cc1 45.1%
Cc1cn(C)c(CC(=O)N2CCN(c3ccccc3F)CC2)c1C(=O)O -2.65%
O=S(=O)(NCc1ccccc1Cl)c1ccc(N2CCCCS2(=O)=O)cc1 -18.8%
Cc1c(C(=O)NCCc2ccc(S(N)(=O)=O)cc2)sc2nc3n(c(=O)c12)CCCC3 20.1%
Cc1cccn2c(=O)c3cc(C(=O)N(Cc4ccccc4)C(C)C)sc3nc12 32.7%
Cc1cccc(C(=O)Nc2nc(-c3nnn(-c4cc(F)ccc4F)c3C)ns2)c1 -0.463%
CCCCN(C)CCNC(=O)c1ccc2c(c1)NC(=O)CN2 -5.01%
COc1ccc(-c2cc(C(F)(F)F)n3nc(C(=O)NCC45CC6CC(CC(C6)C4)C5)cc3n2)cc1OC -9.57%
Cc1cccc(Cn2c(C)c(CNC3CCCCC3)c(C(=O)O)c2C)c1 33%
Cc1cc(Cl)ccc1NC(=O)C1CCN(c2nnc(-n3c(C)ccc3C)s2)CC1 -20.5%
CCOC(=O)c1ccccc1NC(=O)N1CCOc2ccc(Cl)cc21 -37.8%
CC1CCN(S(=O)(=O)c2ccc3c(c2)N(CC(=O)O)C(=O)CO3)CC1 8.15%
Cc1ccc(NC(=O)C(=O)NCC(c2cccnc2)N2CCN(Cc3ccccc3)CC2)cc1 (stereo not given) 0.296%
Cc1ccc2ccc3cc(C(=O)N4CCN(c5ccccc5)CC4)nc3c2[nH]1 46.3%

Source: PubChem BioAssay AID1346428 (National Center for Advancing Translational Sciences (NCATS), 2018)
